# Measured values as given in the supplement of paper PMC8728848.
# Some of the results follow.
# B1: AT1G15820(2) (Arabidopsis thaliana), Q9LMQ2 (protein)
# chain: MAMAVSGAVLSGLGSSFLTGGKRGATALASGVGTGAQRVGRKTLIVAAAAAQPKKSWIPAVKGGGNFLDPEWLDGSLPGDFGFDPLGLGKDPAFLKWYREAELIHGRWAMAAVLGIFVGQAWSGVAWFEAGAQPDAIAPFSFGSLLGTQLLLMGWVESKRWVDFFNPDSQSVEWATPWSKTAENFANYTGDQGYPGGRFFDPLGLAGKNRDGVYEPDFEKLERLKLAEIKHSRLAMVAMLIFYFEAGQGKTPLGALGL
# Key:
# Experiment in all cases: glycan array binding signal (z-score within array); higher = stronger binding
# Conditions in all cases: glycan notation: IUPAC condensed, linker removed
# [1] = molecular target: Fuc(a1-2)Gal(b1-4)GlcNAc(b1-3)Gal(b1-4)GlcNAc(b1-2)Man(a1-3)[Fuc(a1-2)Gal(b1-4)GlcNAc(b1-3)Gal(b1-4)GlcNAc(b1-2)Man(a1-6)]Man(b1-4)GlcNAc(b1-4)GlcNAc
# Method in brief: (§1)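 Columns mapping to the same glycan were averaged after glycan names were converted to IUPAC-condensed notation. The data come from 3228 arrays in the Consortium for Functional Glycomics database, limited to those with an available protein sequence. Binding is reported as a within-array Z-score averaged across arrays of one protein sequence and across linkers.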
# [2] = molecular target: Fuc(a1-2)Gal(b1-4)GlcNAc(b1-3)Gal(b1-4)GlcNAc(b1-3)Gal(b1-4)GlcNAc
# Method in brief: as §1
# [3] = molecular target: Fuc(a1-2)Gal(b1-4)GlcNAc(b1-3)GalNAc
# Method in brief: as §1
# [4] = molecular target: Fuc(a1-2)Gal(b1-4)GlcNAc(b1-3)[Fuc(a1-2)Gal(b1-4)GlcNAc(b1-6)]GalNAc
# Method in brief: as §1
# [5] = molecular target: Fuc(a1-2)Gal(b1-4)GlcNAc(b1-3)[Fuc(a1-3)[Gal(b1-4)]GlcNAc(b1-6)]Gal(b1-4)Glc
# Method in brief: as §1
# [6] = molecular target: Fuc(a1-2)Gal(b1-4)GlcNAc(b1-6)GalNAc
# Method in brief: as §1
# [7] = molecular target: Fuc(a1-2)Gal(b1-4)GlcNAc6S
# Method in brief: as §1
# [8] = molecular target: Fuc(a1-2)Gal(b1-4)[Fuc(a1-3)]GlcNAc
# Method in brief: as §1
# [9] = molecular target: Fuc(a1-2)Gal(b1-4)[Fuc(a1-3)]GlcNAc(b1-2)Man(a1-3)[Fuc(a1-2)Gal(b1-4)[Fuc(a1-3)]GlcNAc(b1-2)Man(a1-6)]Man(b1-4)GlcNAc(b1-4)[Fuc(a1-6)]GlcNAc
# Method in brief: as §1
# [10] = molecular target: Fuc(a1-2)Gal(b1-4)[Fuc(a1-3)]GlcNAc(b1-2)[Fuc(a1-2)Gal(b1-4)[Fuc(a1-3)]GlcNAc(b1-4)]Man(a1-3)[Fuc(a1-2)Gal(b1-4)[Fuc(a1-3)]GlcNAc(b1-2)Man(a1-6)]Man(b1-4)GlcNAc(b1-4)GlcNAc
# Method in brief: as §1
# [11] = molecular target: Fuc(a1-2)Gal(b1-4)[Fuc(a1-3)]GlcNAc(b1-3)Gal(b1-4)[Fuc(a1-3)]GlcNAc
# Method in brief: as §1
# [12] = molecular target: Fuc(a1-2)Gal(b1-4)[Fuc(a1-3)]GlcNAc(b1-3)Gal(b1-4)[Fuc(a1-3)]GlcNAc(b1-3)Gal(b1-4)[Fuc(a1-3)]GlcNAc
# Method in brief: as §1
# [13] = molecular target: Fuc(a1-2)Gal(b1-4)[Fuc(a1-3)]GlcNAc(b1-3)GalNAc
# Method in brief: as §1
# [14] = molecular target: Fuc(a1-2)Gal(b1-4)[Fuc(a1-3)]GlcNAc(b1-3)[Neu5Ac(a2-6)Gal(b1-4)GlcNAc(b1-6)]Gal(b1-4)Glc
# Method in brief: as §1
# [15] = molecular target: Fuc(a1-2)Gal3S(b1-4)GlcNAc
# Method in brief: as §1
# [16] = molecular target: Fuc(a1-2)Gal6S(b1-3)GlcNAc
# Method in brief: as §1
# [17] = molecular target: Fuc(a1-2)Gal6S(b1-3)GlcNAc6S
# Method in brief: as §1
# Fuc(a1-2)Gal6S(b1-4)Glc = molecular target: Fuc(a1-2)Gal6S(b1-4)Glc
# Method in brief: as §1
# [18] = molecular target: Fuc(a1-2)Gal6S(b1-4)Glc6S
# Method in brief: as §1
# Fuc(a1-2)[Gal(a1-3)]Gal = molecular target: Fuc(a1-2)[Gal(a1-3)]Gal
# Method in brief: as §1
# [19] = molecular target: Fuc(a1-2)[Gal(a1-3)]Gal(b1-3)GalNAc
# Method in brief: as §1
# [20] = molecular target: Fuc(a1-2)[Gal(a1-3)]Gal(b1-3)GalNAc(b1-3)Gal(a1-4)Gal(b1-4)Glc
# Method in brief: as §1
# [21] = molecular target: Fuc(a1-2)[Gal(a1-3)]Gal(b1-3)GlcNAc
# Method in brief: as §1
# [22] = molecular target: Fuc(a1-2)[Gal(a1-3)]Gal(b1-3)GlcNAc(b1-2)Man(a1-3)[Fuc(a1-2)[Gal(a1-3)]Gal(b1-3)GlcNAc(b1-2)Man(a1-6)]Man(b1-4)GlcNAc(b1-4)GlcNAc
# Method in brief: as §1
# [23] = molecular target: Fuc(a1-2)[Gal(a1-3)]Gal(b1-3)GlcNAc(b1-2)Man(a1-3)[Fuc(a1-2)[Gal(a1-3)]Gal(b1-3)GlcNAc(b1-2)Man(a1-6)]Man(b1-4)GlcNAc(b1-4)[Fuc(a1-6)]GlcNAc
# Method in brief: as §1
# [24] = molecular target: Fuc(a1-2)[Gal(a1-3)]Gal(b1-3)GlcNAc(b1-3)GalNAc
# Method in brief: as §1
# [25] = molecular target: Fuc(a1-2)[Gal(a1-3)]Gal(b1-3)GlcNAc(b1-6)GalNAc
# Method in brief: as §1
# [26] = molecular target: Fuc(a1-2)[Gal(a1-3)]Gal(b1-4)Glc
# Method in brief: as §1
# [27] = molecular target: Fuc(a1-2)[Gal(a1-3)]Gal(b1-4)GlcNAc
# Method in brief: as §1
# [28] = molecular target: Fuc(a1-2)[Gal(a1-3)]Gal(b1-4)GlcNAc(b1-2)Man
# Method in brief: as §1
# [29] = molecular target: Fuc(a1-2)[Gal(a1-3)]Gal(b1-4)GlcNAc(b1-2)Man(a1-3)[Fuc(a1-2)[Gal(a1-3)]Gal(b1-4)GlcNAc(b1-2)Man(a1-6)]Man(b1-4)GlcNAc(b1-4)GlcNAc
# Method in brief: as §1
# [30] = molecular target: Fuc(a1-2)[Gal(a1-3)]Gal(b1-4)GlcNAc(b1-2)Man(a1-3)[Fuc(a1-2)[Gal(a1-3)]Gal(b1-4)GlcNAc(b1-2)Man(a1-6)]Man(b1-4)GlcNAc(b1-4)[Fuc(a1-6)]GlcNAc
# Method in brief: as §1
# [31] = molecular target: Fuc(a1-2)[Gal(a1-3)]Gal(b1-4)GlcNAc(b1-3)GalNAc
# Method in brief: as §1
# [32] = molecular target: Fuc(a1-2)[Gal(a1-3)]Gal(b1-4)GlcNAc(b1-3)[Fuc(a1-2)[Gal(a1-3)]Gal(b1-4)GlcNAc(b1-6)]GalNAc
# Method in brief: as §1
# [33] = molecular target: Fuc(a1-2)[Gal(a1-3)]Gal(b1-4)GlcNAc(b1-6)GalNAc
# Method in brief: as §1
# [34] = molecular target: Fuc(a1-2)[Gal(a1-3)]Gal(b1-4)[Fuc(a1-3)]Glc
# Method in brief: as §1
# [35] = molecular target: Fuc(a1-2)[Gal(a1-3)]Gal(b1-4)[Fuc(a1-3)]GlcNAc
# Method in brief: as §1
binder,measurement,setting,value
B1,glycan array binding signal (z-score),[1],0.501
same,glycan array binding signal (z-score),[2],0.735
same,glycan array binding signal (z-score),[3],-0.35
same,glycan array binding signal (z-score),[4],-0.414
same,glycan array binding signal (z-score),[5],-0.041
same,glycan array binding signal (z-score),[6],-0.326
same,glycan array binding signal (z-score),[7],0.69
same,glycan array binding signal (z-score),[8],-0.066
same,glycan array binding signal (z-score),[9],0.034
same,glycan array binding signal (z-score),[10],0.178
same,glycan array binding signal (z-score),[11],-0.394
same,glycan array binding signal (z-score),[12],-0.283
same,glycan array binding signal (z-score),[13],0.194
same,glycan array binding signal (z-score),[14],-0.437
same,glycan array binding signal (z-score),[15],-0.407
same,glycan array binding signal (z-score),[16],-0.001
same,glycan array binding signal (z-score),[17],-0.176
same,glycan array binding signal (z-score),Fuc(a1-2)Gal6S(b1-4)Glc,-0.221
same,glycan array binding signal (z-score),[18],0.111
same,glycan array binding signal (z-score),Fuc(a1-2)[Gal(a1-3)]Gal,0.95
same,glycan array binding signal (z-score),[19],-0.022
same,glycan array binding signal (z-score),[20],-0.371
same,glycan array binding signal (z-score),[21],-0.392
same,glycan array binding signal (z-score),[22],0.468
same,glycan array binding signal (z-score),[23],-0.129
same,glycan array binding signal (z-score),[24],-0.46
same,glycan array binding signal (z-score),[25],-0.282
same,glycan array binding signal (z-score),[26],0.335
same,glycan array binding signal (z-score),[27],0.32
same,glycan array binding signal (z-score),[28],-0.366
same,glycan array binding signal (z-score),[29],0.073
same,glycan array binding signal (z-score),[30],-0.258
same,glycan array binding signal (z-score),[31],-0.453
same,glycan array binding signal (z-score),[32],0.536
same,glycan array binding signal (z-score),[33],-0.013
same,glycan array binding signal (z-score),[34],-0.194
same,glycan array binding signal (z-score),[35],0.049
